Consider 167 variants from the RNAGym collection of RNA variant scans (doi:10.7554/elife.90254).

The source gives no read counts; variants with many changes may rest on few reads.

First the molecules themselves.
B1: LINE1-mini (parent)
chain: GGCAGAGCUCAACACAGCGUGGCAAAGUGGCUGUGGCUAGACUGCC

The variants in the data set derive from B1. Put plainly: self-cleavage, relative activity (ratio to wild type); higher = more cleavage; in vitro, sequencing; the parent is a self-cleaving ribozyme.
For the variant A16C G19A C45U, the self-cleavage is 0.16. For C15U C23G A24G, the self-cleavage came out at 0.21.

Consider C15U C18G U28C G33A C45A, for which the self-cleavage was determined as 0.01. With A16C G22A C37G the figure was 0.01; with C15U A25C G29C, 0.85; with C15U C18U G30A G35A, 0.06. A16C G17A U32G A39U: the self-cleavage stood at 0.05.

In the case of C15U G27U A41U, the self-cleavage was found to be 0.08.

On to A16C A26G G27U C37G G44A, for which the self-cleavage came to 0.23. Then C15U G29U C45U, with 1.86; and A16C G17U U34G, with 0.04; and C15U U20G A24G U32A G35U, with 0.03. Then C15G U20C G40U C45G, with 0.01. On to C15U A16C C23U A41U, for which the self-cleavage came out at 0.07. Turning to C15U C18G G40C C42U, the self-cleavage amounted to 0. Consider A16C C37U C42U, for which the self-cleavage stood at 0.02. With C15U G21C A24U C31G the figure was 0.09; with A16C G33C G35A, 0. Then C15G G27U G29C C42U, with 0.05; and C15U A25G U32C, with 0.05. A16C G27C G29U: the self-cleavage was 1.5. Then C15U U34A C45U, with 0.11. Then C15U A16U U28C G33A, with 0.1. With C15U G19C C23U U34G A41U the figure was 0.02.

C15U G21C G29A U43G: the self-cleavage was determined as 0.02. On to C15U G19U G21C U34G, for which the self-cleavage came to 0.02. Then C15G G30A U34C G35U C37U A39G C45U, with 0.

Consider C15U G21U U43G, for which the self-cleavage is 0.02.

On to A16C G27A A39U, for which the self-cleavage was 0.05.

For C15U G17A G19A, the self-cleavage stood at 0.63. Then C15U G17U A41U, with 0.2; and C15U A26U C31U G44A, with 0.08. Take A16C G33U G35A: the self-cleavage turned out to be 0.03. C15U A16U G30U C46G: the self-cleavage came to 0.06. With C15G G22A G40C, the self-cleavage worked out at 0.03. With A16C G21C U32A C37G, the self-cleavage was 0.02. Then C15U A25C U34A G36C C37A, with 0.05; and C15U A26U U34A G40A, with 0.08; and C15U A16U G21U G30U, with 0.11. Then C15U C18G G21A G30A C37U, with 0.08; and C15G G27A C31U, with 0.03; and C15G G40C C42A, with 0.04.

In the case of C15U U38C C45U, the self-cleavage came to 0.7. Then C15U G22U C46U, with 0.51; and C15U C31A G40U C42G, with 0.07.

Take C15G G33U C46A: the self-cleavage was 0.12. With C15G U20C C37U U43C the figure was 0.06; with A16C G27A U32G C42U, 0.03. In the case of C15U C18U G22U G35U, the self-cleavage was 0.38. With C15U U28G G36U C45U the figure was 0.12; with C15G G33A A41G, 0.02. As to C15U C37A U38C, the self-cleavage came out at 0.03. Then C15U A16C G33A G36A, with 0.35. With C15U G21A G29C the figure was 2.53. As for C15U A25C A26U C45U, the self-cleavage came out at 0.23.

For the variant C15U U34G G40U, the self-cleavage amounted to 0. Then A16C C42A G44C, with 0.03; and C15U C23G A24G G44U, with 0.05.

As to C15U G22U U34C G44A, the self-cleavage came to 0.04. With C15U U38G G40U the figure was 0.13; with A16C C23U U34C, 0.11; with C15U A26U G44U, 0.18.

Consider C15U C18G A25C G29A A41U, for which the self-cleavage amounted to 0.04. With C15U U20C G22C the figure was 0.99; with C15U U20C G27U G44U, 0.18. Take C15U G29U C37A C42U: the self-cleavage is 0.05. With C15U A24U G30A the figure was 0.11; with C15U G22C G29U, 2.66; with A16C G17A C18G, 0.05. Then C15U G22U A24G G30U, with 0.35; and C15U G17U A26C C45G, with 0.04.

Turning to C15U G17C G19A G22U G36C, the self-cleavage worked out at 0. On to C15U G17C A24C C46A, for which the self-cleavage came out at 0.03.

Regarding C15U C23A C31U U32A, the self-cleavage was determined as 0.18.

With C15U G22A G29C C31G C42A, the self-cleavage was found to be 0. With C15U G17C A26C the figure was 0.22; with C15U G17C A26G, 0.04; with C15U G19A G29U U38A, 1.51. With C15U A16C G35U A39C the figure was 0.02; with C15U C23A G29C, 1.67; with C15U G22A G27U U38A G44U, 0.52. C15U G17A G30U C37U C42G: the self-cleavage was found to be 0.06.

For the variant C15U G21U A25U, the self-cleavage amounted to 0.26. With C15U A16C A41G the figure was 0.02. Regarding C15U A16G G19U C31U U38G, the self-cleavage is 0.02.

For C15U C31G A39U, the self-cleavage is 0.05. Then C15U C18U G19U C23A, with 1.02; and C15U A25G A26U, with 0.04. Consider C15G G27U A39G, for which the self-cleavage turned out to be 0.06. Then C15U G27C G36U, with 0.07.

Regarding C15U A16U G33A, the self-cleavage came out at 0.02. As for C15U C18U G21A, the self-cleavage is 0.27. Then C15U C18G G33A U34G A39C, with 0; and C15U G19U U43A, with 0.02. Take A16C G30A A39C G40U: the self-cleavage is 0.04. With A16C G17U G33U the figure was 0.05; with A16C A25G U28G, 0.04; with A16C G19U U34C U38A C46A, 0.05. Then C15U U28A G44C, with 0.07; and A16C A24C A26U G33U, with 0.02.

Regarding C15U G27U G35C A39U C45A, the self-cleavage amounted to 0.02. Turning to C15U G17C U20C A25U U43G, the self-cleavage came to 0. Then C15U A26U C31U C37G G44A, with 0.05; and C15G U32G C42U G44A, with 0.01; and A16C G21C U38A C42A U43G, with 0.06. With C15U G17A C42A G44U the figure was 0.01; with C15U G29U C46A, 1.79; with A16C A25C G30A U38A, 0.04. With A16C C23G U28G, the self-cleavage was found to be 0.06.

With C15G G35A G40C A41U C46U, the self-cleavage is 0.04. Then C15U G21C G27A C37U C46A, with 0.07; and C15U G22C C23A, with 2.09. With C15U A25C U28C C31A G36C A39G C45A the figure was 0.12. In the case of C15U G35U A41U, the self-cleavage came to 0.15. With C15U U20A A26C the figure was 1.81; with C15U A16C G19A G21A G35A, 0.3. Take C15U A26U G27C U34A G35A G40U: the self-cleavage was 0.43. Then C15G U34A C42A, with 0.02; and C15G U34A C42U, with 0.04; and A16C G17C U32G G44A, with 0.06. With A16C G22A G40U the figure was 0.06; with C15U C31A C42U, 0.05; with C15U G19A G33A U43A, 0.02. Then C15G G29C G35C U43A C45A, with 0; and C15G U32C A41U, with 0.02. With A16C G17U C31G G36U, the self-cleavage came out at 0.02.

With C15G G22C G27U U34A U43C, the self-cleavage was determined as 0. For the variant C15U C31U G44U, the self-cleavage stood at 0.06. With C15U G21U A25G A26U the figure was 0.04; with A16C G30U C45U, 0.03. With C15U A26G G27U C37A C45A the figure was 0.03; with A16C G33U G36A, 0; with A16C C31U G35C C45A, 0. For the variant A16C A26G G27C C37G U38C, the self-cleavage is 0.08.

C15U A24C C31A: the self-cleavage was 0.04. Consider A16C G22A G27C U28A G33U A41G, for which the self-cleavage was determined as 0.01. Then C15U G22U C23A U43A, with 0.01. With C15G U32C G44U the figure was 0.01; with C15U C42G C46G, 0; with C15U A26U G33A G36A A39U C42U, 0.2. As to A16C C23A U28A C37A, the self-cleavage amounted to 0.01. C15U G19A A25G U28G: the self-cleavage amounted to 0.21. Then C15G G36C C46U, with 0.01; and C15U A24U C46G, with 0.5; and C15U G21U G44U C46A, with 0.05. With C15U C31G C45G the figure was 0.02. Take C15U G30C U32A U34A G35U: the self-cleavage turned out to be 0.04. Turning to C15G U28G C37A, the self-cleavage was 0.03. Regarding C15U G17U G22C A25G G27A C42A, the self-cleavage turned out to be 0.03. With C15U U34G C46A the figure was 0.03; with A16C G21C A39G, 0.01; with C15G G36C C37U, 0.07.

Take C15U A26U A41G U43C: the self-cleavage stood at 0.09.

Take C15U G19U G40U C45A: the self-cleavage came out at 0.01.

Turning to C15U U32A C42A, the self-cleavage stood at 0.06. Then A16C G27U C45U, with 0.06; and C15U A16C G17U, with 0.03. Consider C15U G21U G40U C46A, for which the self-cleavage was 0.1. Turning to C15U A16G G30U, the self-cleavage is 0.01. As for A16C A24G G27A, the self-cleavage amounted to 0.81. With C15U G17U G40A the figure was 0.04. Then C15G G22C A25U, with 0.01; and A16C C18G G27C U34A, with 0.26; and C15U C23G G35U, with 0.05.

As to A16C C18G A24C U43C, the self-cleavage amounted to 0.01.

With A16C G22A A25C G33C A41C U43A, the self-cleavage is 0.01. On to A16C G17A G19U G27C G36C, for which the self-cleavage is 0.01.
